Laboratory results from the supplement of paper PMC10126150.
Values marked as one replicate rest on one cluster of the flow cell; about a third of the high ones do not repeat.

Tested on: ATP
Assay: switch fluorescence ratio, 500 uM ATP over buffer (Cy3 cluster intensity, sum of 5 cycles each) (fold (ratio)); higher = stronger signal-on switching upon ATP binding; sequences stand for … in TCGTCGGCAGCGTCAGATGTGTATAAGAGACAGTTTTTTTTTTTTTTTTTTTTTTTTT…TC
Details: aptamer strand: ATP DNA aptamer (quencher-CACCTGGGGGAGTATTGCGGAGGAAGG + anchor), 100 nM annealed; ATP concentration: 500 uM; one replicate
How it was run: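 Cy3-labelled switching-strand clusters on a modified Illumina MiSeq flow-cell were annealed to 100 nM quencher-labelled ATP aptamer and imaged first in selection buffer, then after 15 min with 500 uM ATP at 22 °C. NaOH stripping and re-annealing separated each of five buffer/ATP cycles, and clusters outside 100-1000 RFU were excluded. The fluorescence ratio sums target-cycle Cy3 intensity over buffer-cycle Cy3 intensity per cluster and averages it per switch-domain sequence.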
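Further: ATP exposure 15 min at 22 °C before imaging.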

**Q.** With ATGTCTTGGA as the sequence, how does the switch fluorescence ratio read?
**A.** 0.99

**Q.** For ATGTGAAGGC, which switch fluorescence ratio is on record?
**A.** 1.03

**Q.** With ATGTGACAAT as the sequence, how does the switch fluorescence ratio read?
**A.** 0.996

**Q.** For ATGTGATCCT, which switch fluorescence ratio is on record?
**A.** 1.04

**Q.** For ATGTGATCTT, which switch fluorescence ratio is on record?
**A.** 0.971

**Q.** With ATGTGATTGC as the sequence, how does the switch fluorescence ratio read?
**A.** 1.04

**Q.** Which switch fluorescence ratio does the source give for ATGTGCTATA here?
**A.** 1.03

**Q.** How did the switch fluorescence ratio turn out when ATGTGCTGCA was run?
**A.** 0.962

**Q.** For ATGTGGCTTG, which switch fluorescence ratio is on record?
**A.** 1.01

**Q.** ATGTGGTAGG was tested. Which switch fluorescence ratio did it give?
**A.** 0.967

**Q.** How did the switch fluorescence ratio turn out when ATGTGTGGCC was run?
**A.** 1

**Q.** Which switch fluorescence ratio does the source give for ATGTGTTTCA here?
**A.** 0.973

**Q.** ATGTTACTGC was tested. Which switch fluorescence ratio did it give?
**A.** 1.02

**Q.** With ATGTTACTTC as the sequence, how does the switch fluorescence ratio read?
**A.** 1.02

**Q.** ATGTTATCCA was tested. Which switch fluorescence ratio did it give?
**A.** 1

**Q.** For ATGTTCGTTG, which switch fluorescence ratio is on record?
**A.** 0.922

**Q.** Which switch fluorescence ratio does the source give for ATGTTGCTCG here?
**A.** 0.995

**Q.** With ATGTTGTACG as the sequence, how does the switch fluorescence ratio read?
**A.** 1.03

**Q.** Which switch fluorescence ratio does the source give for ATGTTTTAGC here?
**A.** 1.02

**Q.** How did the switch fluorescence ratio turn out when ATTAAACAGC was run?
**A.** 0.964

**Q.** ATTAAACCGT was tested. Which switch fluorescence ratio did it give?
**A.** 1.06

**Q.** Which switch fluorescence ratio does the source give for ATTAAAGTAC here?
**A.** 1.19

**Q.** How did the switch fluorescence ratio turn out when ATTAAATGCT was run?
**A.** 0.986

**Q.** Which switch fluorescence ratio does the source give for ATTAACAAGC here?
**A.** 1.02

**Q.** How did the switch fluorescence ratio turn out when ATTAACACGG was run?
**A.** 1.03

**Q.** Which switch fluorescence ratio does the source give for ATTAAGCCGG here?
**A.** 0.966

**Q.** Which switch fluorescence ratio does the source give for ATTAATACTG here?
**A.** 1.01

**Q.** ATTAATCACG was tested. Which switch fluorescence ratio did it give?
**A.** 1.08

**Q.** ATTAATCGC was tested. Which switch fluorescence ratio did it give?
**A.** 0.996

**Q.** With ATTAATCGCC as the sequence, how does the switch fluorescence ratio read?
**A.** 1.09

**Q.** How did the switch fluorescence ratio turn out when ATTAATGGT was run?
**A.** 1.01

**Q.** For ATTACAAGGG, which switch fluorescence ratio is on record?
**A.** 0.958

**Q.** Which switch fluorescence ratio does the source give for ATTACAGAAG here?
**A.** 1.05

**Q.** With ATTACAGTAG as the sequence, how does the switch fluorescence ratio read?
**A.** 1.03

**Q.** Which switch fluorescence ratio does the source give for ATTACCCATA here?
**A.** 1.05

**Q.** For ATTACGAGTT, which switch fluorescence ratio is on record?
**A.** 0.983

**Q.** ATTACGGCCG was tested. Which switch fluorescence ratio did it give?
**A.** 1.04

**Q.** How did the switch fluorescence ratio turn out when ATTACGTGAG was run?
**A.** 1.02

**Q.** How did the switch fluorescence ratio turn out when ATTACTGAAC was run?
**A.** 1.19

**Q.** With ATTAGACATA as the sequence, how does the switch fluorescence ratio read?
**A.** 0.986

**Q.** How did the switch fluorescence ratio turn out when ATTAGACGAC was run?
**A.** 1.07

**Q.** Which switch fluorescence ratio does the source give for ATTAGACGAT here?
**A.** 0.986

**Q.** How did the switch fluorescence ratio turn out when ATTAGATA was run?
**A.** 0.989

**Q.** ATTAGCCTTC was tested. Which switch fluorescence ratio did it give?
**A.** 1.14

**Q.** With ATTAGCTCGA as the sequence, how does the switch fluorescence ratio read?
**A.** 1.02

**Q.** For ATTAGGAACG, which switch fluorescence ratio is on record?
**A.** 0.95

**Q.** ATTAGGCGGA was tested. Which switch fluorescence ratio did it give?
**A.** 0.997

**Q.** For ATTAGGCTGG, which switch fluorescence ratio is on record?
**A.** 0.987

**Q.** Which switch fluorescence ratio does the source give for ATTAGGTTTT here?
**A.** 1.05

**Q.** How did the switch fluorescence ratio turn out when ATTAGTCCAG was run?
**A.** 1.06

**Q.** How did the switch fluorescence ratio turn out when ATTAGTGCAA was run?
**A.** 1.08

**Q.** For ATTAGTTCCA, which switch fluorescence ratio is on record?
**A.** 1.01

**Q.** ATTATACCAT was tested. Which switch fluorescence ratio did it give?
**A.** 1

**Q.** With ATTATAGCGC as the sequence, how does the switch fluorescence ratio read?
**A.** 1.01

**Q.** ATTATAGGCA was tested. Which switch fluorescence ratio did it give?
**A.** 0.987

**Q.** How did the switch fluorescence ratio turn out when ATTATAGTCT was run?
**A.** 0.961

**Q.** For ATTATCCTG, which switch fluorescence ratio is on record?
**A.** 1.06

**Q.** With ATTATCGGAC as the sequence, how does the switch fluorescence ratio read?
**A.** 0.989

**Q.** For ATTATCGGCT, which switch fluorescence ratio is on record?
**A.** 0.956

**Q.** ATTATGCTTG was tested. Which switch fluorescence ratio did it give?
**A.** 1.01

**Q.** With ATTATGGTAC as the sequence, how does the switch fluorescence ratio read?
**A.** 1.06

**Q.** Which switch fluorescence ratio does the source give for ATTATGTCCG here?
**A.** 0.967

**Q.** ATTATTGAGC was tested. Which switch fluorescence ratio did it give?
**A.** 0.99

**Q.** ATTATTGATC was tested. Which switch fluorescence ratio did it give?
**A.** 1.02

**Q.** For ATTATTTAAC, which switch fluorescence ratio is on record?
**A.** 0.966

**Q.** For ATTATTTGTG, which switch fluorescence ratio is on record?
**A.** 0.976

**Q.** With ATTCAAGATC as the sequence, how does the switch fluorescence ratio read?
**A.** 0.989

**Q.** For ATTCAATTTG, which switch fluorescence ratio is on record?
**A.** 0.999

**Q.** Which switch fluorescence ratio does the source give for ATTCACGACC here?
**A.** 1.21

**Q.** Which switch fluorescence ratio does the source give for ATTCAGAA here?
**A.** 1.01

**Q.** ATTCAGATGC was tested. Which switch fluorescence ratio did it give?
**A.** 0.973

**Q.** With ATTCAGCCCG as the sequence, how does the switch fluorescence ratio read?
**A.** 1.04

**Q.** How did the switch fluorescence ratio turn out when ATTCAGCCGG was run?
**A.** 1.08

**Q.** How did the switch fluorescence ratio turn out when ATTCAGCTTA was run?
**A.** 0.967

**Q.** For ATTCCAGTCT, which switch fluorescence ratio is on record?
**A.** 0.997

**Q.** For ATTCCCCGT, which switch fluorescence ratio is on record?
**A.** 1.15

**Q.** How did the switch fluorescence ratio turn out when ATTCCCGTGA was run?
**A.** 1.12

**Q.** For ATTCCGACA, which switch fluorescence ratio is on record?
**A.** 1.04

**Q.** How did the switch fluorescence ratio turn out when ATTCCGTTTC was run?
**A.** 1.09

**Q.** ATTCCTCATT was tested. Which switch fluorescence ratio did it give?
**A.** 1.02

**Q.** Which switch fluorescence ratio does the source give for ATTCCTTCGG here?
**A.** 1.03

**Q.** For ATTCGAAGGC, which switch fluorescence ratio is on record?
**A.** 1

**Q.** ATTCGACTTT was tested. Which switch fluorescence ratio did it give?
**A.** 1.07

**Q.** For ATTCGTGGAG, which switch fluorescence ratio is on record?
**A.** 0.962

**Q.** For ATTCGTTATT, which switch fluorescence ratio is on record?
**A.** 0.992

**Q.** With ATTCGTTCAA as the sequence, how does the switch fluorescence ratio read?
**A.** 0.963

**Q.** How did the switch fluorescence ratio turn out when ATTCGTTTAG was run?
**A.** 1.02

**Q.** Which switch fluorescence ratio does the source give for ATTCTCGCCA here?
**A.** 1.01

**Q.** ATTCTCTGT was tested. Which switch fluorescence ratio did it give?
**A.** 1.02

**Q.** For ATTCTGCATG, which switch fluorescence ratio is on record?
**A.** 1.01

**Q.** ATTCTGGGAG was tested. Which switch fluorescence ratio did it give?
**A.** 1

**Q.** Which switch fluorescence ratio does the source give for ATTCTGTTGG here?
**A.** 0.96

**Q.** Which switch fluorescence ratio does the source give for ATTCTTAGTT here?
**A.** 1.03

**Q.** How did the switch fluorescence ratio turn out when ATTCTTGGTT was run?
**A.** 0.955

**Q.** ATTCTTTAAT was tested. Which switch fluorescence ratio did it give?
**A.** 0.958

**Q.** ATTCTTTAGT was tested. Which switch fluorescence ratio did it give?
**A.** 1.04

**Q.** With ATTGAATAAG as the sequence, how does the switch fluorescence ratio read?
**A.** 0.965

**Q.** For ATTGACCGTA, which switch fluorescence ratio is on record?
**A.** 1

**Q.** With ATTGAGCCTA as the sequence, how does the switch fluorescence ratio read?
**A.** 0.934

**Q.** For ATTGAGGATT, which switch fluorescence ratio is on record?
**A.** 0.987

**Q.** How did the switch fluorescence ratio turn out when ATTGAGTCCT was run?
**A.** 0.999
